Assay results reported in PMC6239180 (RNA, 2018).

Target: T1, His-tagged hClp1 (human, UniProt Q92989 1-425)
T1 sequence: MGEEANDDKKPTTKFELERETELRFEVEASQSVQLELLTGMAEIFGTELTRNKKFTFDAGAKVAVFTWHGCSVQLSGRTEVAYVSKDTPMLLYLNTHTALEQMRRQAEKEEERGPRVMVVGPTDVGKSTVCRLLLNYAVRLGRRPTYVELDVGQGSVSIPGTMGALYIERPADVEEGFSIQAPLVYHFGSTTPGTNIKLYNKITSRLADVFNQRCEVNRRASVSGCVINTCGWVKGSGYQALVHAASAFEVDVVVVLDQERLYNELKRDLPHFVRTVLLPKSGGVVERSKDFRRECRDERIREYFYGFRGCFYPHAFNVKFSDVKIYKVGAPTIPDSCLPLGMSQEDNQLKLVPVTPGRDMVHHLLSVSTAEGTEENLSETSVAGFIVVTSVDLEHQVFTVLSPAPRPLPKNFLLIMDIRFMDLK
Assay: SEC + other: glycerol gradient centrifugation

B1: hPcf11 (full-length, recombinant) (natural protein)
chain: not shown
stoichiometry N: 1 hPcf11 per hClp1
